Test results reported in article PMC12498288 (Frontiers in Immunology, 2025).
Like-named read-outs stand apart in the source and are kept apart here.

Tested on: SARS-CoV-2
Conditions: nasopharyngeal

SMILES: O=C(O)c1ccc(F)c(F)c1Nc1ccc(I)cc1Cl [zapnometinib]
- SARS-CoV-2 RNA titer mean change, Diff. Zapnometinib - Placebo (non omicron, Day 3): -0.14 log10 copies/ml
- SARS-CoV-2 RNA titer, Baseline Mean (mean at visit) (non omicron, Day 3): 3.67 log10 copies/ml
- SARS-CoV-2 RNA titer mean change, Diff. Zapnometinib - Placebo (non omicron, Day 5): 0.10 log10 copies/ml
- SARS-CoV-2 RNA titer, Baseline Mean (mean at visit) (non omicron, Day 5): 2.85 log10 copies/ml
- SARS-CoV-2 RNA titer mean change, Diff. Zapnometinib - Placebo (non omicron, Day 8): 0.07 log10 copies/ml
- SARS-CoV-2 RNA titer, Baseline Mean (mean at visit) (non omicron, Day 8): 2.21 log10 copies/ml
- SARS-CoV-2 RNA titer mean change, Diff. Zapnometinib - Placebo (non omicron, Day 11): -0.71 log10 copies/ml
- SARS-CoV-2 RNA titer, Baseline Mean (mean at visit) (non omicron, Day 11): 2.43 log10 copies/ml
- SARS-CoV-2 RNA titer mean change, Diff. Zapnometinib - Placebo (non omicron, Day 15): 0.10 log10 copies/ml
- SARS-CoV-2 RNA titer, Baseline Mean (mean at visit) (non omicron, Day 15): 2.24 log10 copies/ml
- SARS-CoV-2 RNA titer, Baseline Mean (mean at visit) (non omicron, Day 30): 2.00 log10 copies/ml
- SARS-CoV-2 RNA titer mean change, Diff. Zapnometinib - Placebo (omicron, Day 3): -0.63 log10 copies/ml
- SARS-CoV-2 RNA titer, Baseline Mean (mean at visit) (omicron, Day 3): 6.65 log10 copies/ml
- SARS-CoV-2 RNA titer mean change, Diff. Zapnometinib - Placebo (omicron, Day 5): 0.12 log10 copies/ml
- SARS-CoV-2 RNA titer, Baseline Mean (mean at visit) (omicron, Day 5): 5.51 log10 copies/ml
- SARS-CoV-2 RNA titer mean change, Diff. Zapnometinib - Placebo (omicron, Day 8): 1.06 log10 copies/ml
- SARS-CoV-2 RNA titer, Baseline Mean (mean at visit) (omicron, Day 8): 4.09 log10 copies/ml
- SARS-CoV-2 RNA titer mean change, Diff. Zapnometinib - Placebo (omicron, Day 11): 1.25 log10 copies/ml
- SARS-CoV-2 RNA titer, Baseline Mean (mean at visit) (omicron, Day 11): 3.07 log10 copies/ml
- SARS-CoV-2 RNA titer mean change, Diff. Zapnometinib - Placebo (omicron, Day 15): 0.87 log10 copies/ml
- SARS-CoV-2 RNA titer, Baseline Mean (mean at visit) (omicron, Day 15): 2.86 log10 copies/ml
- SARS-CoV-2 RNA titer mean change, Diff. Zapnometinib - Placebo (omicron, Day 30): 1.16 log10 copies/ml
- SARS-CoV-2 RNA titer, Baseline Mean (mean at visit) (omicron, Day 30): 2.60 log10 copies/ml
- SARS-CoV-2 RNA titer mean change, Diff. Zapnometinib - Placebo (participants overall, Day 3): -0.36 log10 copies/ml
- SARS-CoV-2 RNA titer, Baseline Mean (mean at visit) (participants overall, Day 3): 4.78 log10 copies/ml
- SARS-CoV-2 RNA titer mean change, Diff. Zapnometinib - Placebo (participants overall, Day 5): 0.11 log10 copies/ml
- SARS-CoV-2 RNA titer, Baseline Mean (mean at visit) (participants overall, Day 5): 3.78 log10 copies/ml
- SARS-CoV-2 RNA titer mean change, Diff. Zapnometinib - Placebo (participants overall, Day 8): 0.53 log10 copies/ml
- SARS-CoV-2 RNA titer, Baseline Mean (mean at visit) (participants overall, Day 8): 2.78 log10 copies/ml
- SARS-CoV-2 RNA titer mean change, Diff. Zapnometinib - Placebo (participants overall, Day 11): 0.29 log10 copies/ml
- SARS-CoV-2 RNA titer, Baseline Mean (mean at visit) (participants overall, Day 11): 2.42 log10 copies/ml
- SARS-CoV-2 RNA titer mean change, Diff. Zapnometinib - Placebo (participants overall, Day 15): 0.49 log10 copies/ml
- SARS-CoV-2 RNA titer, Baseline Mean (mean at visit) (participants overall, Day 15): 2.16 log10 copies/ml
- SARS-CoV-2 RNA titer mean change, Diff. Zapnometinib - Placebo (participants overall, Day 30): 0.75 log10 copies/ml
- SARS-CoV-2 RNA titer, Baseline Mean (mean at visit) (participants overall, Day 30): 1.93 log10 copies/ml
